Measurements from patent US6172042A, “Synthetic peptides that inhibit IL-6 activity” (Yeda Research and Development Co. LTD, priority 1995, dated 2001).
Entries after “also recorded” stand apart in the source; their conditions may differ. Read-outs that look alike come from different tables or passages of the source. Part of at least one peptide drawing is inferred or uncertain, most often the ends. Where a SMILES comes first, the peptide text is derived from it.

Experiments:
human myeloma XG-1 cells = experiment: IL-6 dependent growth of human myeloma XG-1 cells (3H-thymidine incorporation); assay type: cell-based; details: for reduction of IL-6 dependent growth: 100 μg/ml of peptide, IL-6 0.2 U/ml; for 3H-Thymidine incorporation / IL-6 dpdt 3H-Thymidine incorporation / IL-6 dpdt (%): peptide 100 μg/ml; for 3H-Thymidine incorporation: 3 days; for IL-6 dpdt 3H-Thymidine incorporation: difference with IL-6 0.2 U/ml minus no IL-6; for IL-6 dpdt (%): percent of IL-6 dependent growth without peptide
[1] = system: B9 plasmacytoma-derived cells; details: for Percent of IL-6 dependent cell growth ± SD: IL-6 2.5 U/ml, 3 days, 5 experiments; for Percent of IL-6 dependent cell growth: IL-6: 1 U/ml, peptides tested at 250 μg/ml

Structure (SMILES)	inhibition of growth of XG-1 cells (result in words) (human myeloma XG-1 cells)	reduction of IL-6 dependent growth (human myeloma XG-1 cells)	3H-Thymidine incorporation (human myeloma XG-1 cells; IL-6, 0.2 U/ml) [cpm × 10^-3]	3H-Thymidine incorporation (human myeloma XG-1 cells; No IL-6) [cpm × 10^-3]	IL-6 dpdt 3H-Thymidine incorporation (human myeloma XG-1 cells) [cpm × 10^-3]	IL-6 dpdt (%) (human myeloma XG-1 cells)	Percent of IL-6 dependent cell growth ± SD ([1]; peptide 62.5 μg/ml) [%]	Percent of IL-6 dependent cell growth ± SD ([1]; peptide 125 μg/ml) [%]	inhibition of IL-6 dependent growth of B9 cells (result in words) [1]	Percent of IL-6 dependent cell growth [1] [%]	Percent of IL-6 dependent cell growth ± SD ([1]; peptide 250 μg/ml) [%]	residual IL-6 dependent growth ([1]; series of four experiments) [%]
CC(C)C[C@H](NC(=O)[C@H](CCC(=O)O)NC(=O)[C@H](Cc1ccccc1)NC(=O)[C@H](CCCNC(=N)N)NC(=O)[C@H](CC(C)C)NC(=O)[C@H](CCCNC(=N)N)NC(=O)[C@H](Cc1ccc(O)cc1)NC(=O)[C@H](Cc1ccccc1)NC(=O)[C@@H](N)CO)C(=O)N[C@@H](CCCNC(=N)N)C(=O)N[C@@H](Cc1ccc(O)cc1)C(=O)N[C@@H](CCCNC(=N)N)C(=O)N[C@@H](C)C(=O)N[C@@H](CCC(=O)O)C(=O)O [peptide 1062, SFYRLRFELRYRAE] (H-SFYRLRFELRYRAE-OH)	inhibit; also recorded: active	85%	15.1 ± 3.3	8.3 ± 0.3	6.8	18.2	100 ± 0	15 ± 9				
CC[C@H](C)[C@H](NC(=O)[C@@H](NC(=O)[C@H](CS)NC(=O)[C@H](Cc1c[nH]cn1)NC(=O)[C@H](Cc1c[nH]cn1)NC(=O)[C@@H](N)CCC(N)=O)C(C)C)C(=O)N[C@@H](Cc1c[nH]cn1)C(=O)N[C@@H](CC(=O)O)C(=O)N[C@@H](C)C(=O)N[C@@H](Cc1c[nH]c2ccccc12)C(=O)N[C@@H](CO)C(=O)NCC(=O)O [peptide 1118] (H-QHHCVIHDAWSG-OH)									low			
CC[C@H](C)[C@H](NC(=O)[C@@H](NC(=O)[C@@H](N)CS)C(C)C)C(=O)N[C@@H](Cc1c[nH]cn1)C(=O)N[C@@H](CC(=O)O)C(=O)N[C@@H](C)C(=O)N[C@@H](Cc1c[nH]c2ccccc12)C(=O)N[C@@H](CO)C(=O)NCC(=O)N[C@@H](CC(C)C)C(=O)N[C@@H](CCCNC(=N)N)C(=O)N[C@@H](Cc1c[nH]cn1)C(=O)N[C@H](C(=O)N[C@H](C(=O)N[C@@H](CCC(N)=O)C(=O)N[C@@H](CC(C)C)C(=O)N[C@@H](CCCNC(=N)N)C(=O)N[C@@H](C)C(=O)N[C@@H](CCC(N)=O)C(=O)N[C@@H](CCC(=O)O)C(=O)N[C@@H](CCC(=O)O)C(=O)N[C@@H](Cc1ccccc1)C(=O)NCC(=O)O)C(C)C)C(C)C [compound 983] (H-CVIHDAWSGLRHVVQLRAQEEFG-OH)									not active	100		
CC(C)C[C@H](NC(=O)[C@H](CCC(N)=O)NC(=O)[C@H](CO)NC(=O)[C@H](CO)NC(=O)[C@H](CCC(N)=O)NC(=O)[C@@H]1CCCN1C(=O)[C@H](CCC(=O)O)NC(=O)[C@H](CCC(=O)O)NC(=O)[C@H](CO)NC(=O)[C@H](Cc1ccccc1)NC(=O)[C@H](CO)NC(=O)[C@@H](NC(=O)[C@H](CCC(N)=O)NC(=O)[C@@H](NC(=O)[C@H](CCC(N)=O)NC(=O)[C@H](CCC(N)=O)NC(=O)[C@H](CC(=O)O)NC(=O)[C@H](CCCNC(=N)N)NC(=O)[C@H](Cc1ccc(O)cc1)NC(=O)[C@H](CCCNC(=N)N)NC(=O)[C@H](Cc1c[nH]cn1)NC(=O)CNC(=O)[C@@H]1CCCN1)[C@@H](C)O)[C@@H](C)O)C(=O)N[C@@H](CC(C)C)C(=O)N1CCC[C@H]1C(=O)N[C@@H](CS)C(=O)O [peptide 903, reference compound] (H-PGHRYRDQQTQTSFSEEPQSSQLLPC-OH)							97 ± 4	95 ± 9	did not inhibit	100	89 ± 15	
CC(C)C[C@H](NC(=O)[C@@H]1CCCN1C(=O)[C@@H](N)CO)C(=O)N[C@@H](CO)C(=O)N[C@@H](CC(N)=O)C(=O)N[C@H](C(=O)N[C@H](C(=O)N[C@@H](CS)C(=O)N[C@@H](CCC(=O)O)C(=O)N[C@@H](Cc1c[nH]c2ccccc12)C(=O)NCC(=O)O)C(C)C)C(C)C [peptide 1067, SPLSNVVCEWG] (H-SPLSNVVCEWG-OH)	active		10.7	6.5	4.2	11.3			some activity but lower than peptide 1063	48		62
CSCC[C@H](NC(=O)[C@H](Cc1c[nH]c2ccccc12)NC(=O)[C@@H](NC(=O)[C@@H](NC(=O)[C@H](Cc1ccccc1)NC(=O)[C@@H](NC(=O)[C@H](CCCCN)NC(=O)[C@H](CO)NC(=O)[C@H](CCCNC(=N)N)NC(=O)[C@@H](N)CCC(=O)O)[C@@H](C)O)[C@@H](C)O)[C@@H](C)O)C(=O)O [compound 1122] (H-ERSKTFTTWM-OH)									strong			
CSCC[C@H](NC(=O)[C@H](Cc1c[nH]c2ccccc12)NC(=O)[C@@H](NC(=O)[C@@H](NC(=O)[C@H](Cc1ccccc1)NC(=O)[C@@H](NC(=O)[C@H](CCCCN)NC(=O)[C@H](CO)NC(=O)[C@H](CCCNC(=N)N)NC(=O)[C@H](CCC(=O)O)NC(=O)[C@H](C)NC(=O)[C@H](CCCNC(=N)N)NC(=O)[C@H](Cc1ccc(O)cc1)NC(=O)[C@H](CCCNC(=N)N)NC(=O)[C@@H](N)CC(C)C)[C@@H](C)O)[C@@H](C)O)[C@@H](C)O)C(=O)N[C@H](C(=O)O)C(C)C [peptide 1063, LRYRAERSKTFTTWMV] (H-LRYRAERSKTFTTWMV-OH)	inhibit; also recorded: somewhat	more than 55%	25.2 ± 0.2	8.7 ± 2.5	16.5	44.3	71 ± 9	45 ± 16	active	3	2 ± 1	
CC(C)C[C@H](NC(=O)[C@H](CCC(N)=O)NC(=O)[C@@H](N)C(C)C)C(=O)N[C@@H](CCCNC(=N)N)C(=O)N[C@@H](C)C(=O)N[C@@H](CCC(N)=O)C(=O)N[C@@H](Cc1ccccc1)C(=O)N[C@@H](CCC(=O)O)C(=O)N[C@@H](Cc1ccccc1)C(=O)N[C@@H](CS)C(=O)N[C@@H](CCC(N)=O)C(=O)O [peptide 1064, VQLRAQFEFCQ] (H-VQLRAQFEFCQ-OH)	only a small inhibitory effect		39.1 ± 1.5	10.1 ± 0.3	29.0	78			not active	74		
